According to patent EP3461842A1 (Amgen Research (Munich) GmbH, dated 2019):

Each binder was assayed against T1, human CD3 (epsilon) on human T cells (HPB-ALL cell line, human PBMC) (human, UniProt P07766) (assay: FACS, HPB-ALL).
T1 construct: whole, on cells; also called native CD3
T1 sequence (P07766 23-207): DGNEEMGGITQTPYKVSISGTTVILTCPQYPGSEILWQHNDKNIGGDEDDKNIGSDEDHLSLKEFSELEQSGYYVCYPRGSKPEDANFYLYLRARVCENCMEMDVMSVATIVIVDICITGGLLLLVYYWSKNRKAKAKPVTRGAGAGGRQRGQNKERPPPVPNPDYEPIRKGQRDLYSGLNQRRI

Row | Binder | binding result
1 | MCSP-G4 HLP x G4H HLP (bispecific antibody, plus C-terminal His6 tag) QVQLVQSGAEVKRPGASMKVSCKASGYTFTNYYIHWVRQAPGQGLEWMGWINPNSGATNYAQKFQGRVTMTRDTSTSTVYMELSSLRSEDTAVYYCAKSWVSWFASWGQGTLVTVSSGGGGSGGGGSGGGGSELVMTQSPDSLAVSLGERATINCKSSQSVLNSSNNRNYLAWYQQKPGQPPKLLIYWASTRESGVPDRFSGSGSGTDFTLTISGLQAEDVAVYYCQQHYSTPFTFGPGTKVDIKSGGGGSEVQLLESGGGLVQPGGSLKLSCAASGFTFNRYAMNWVRQAPGKGLEWVARIRSKYNNYATYYADSVKGRFTISRDDSKNTAYLQMNNLKTEDTAVYYCVRHGNFGNSYLSYFAYWGQGTLVTVSSGGGGSGGGGSGGGGSELVVTQEPSLTVSPGGTVTLT[gap - about 80 residues]FGGGTKLTVL | binds
2 | MCSP-F9 HLP x G4H HLP (bispecific antibody, plus C-terminal His6 tag) EVQLQESGPGLVKPSETLSLTCVVSGGSISSSNWWSWVRQPPGKGLEWLGTIYYNGNTYYNPSLKSRVTISVDTSKNQFSLRLSSVTAADTAVYYCAKSWVSWFASWGQGTLVTVSSGGGGSGGGGSGGGGSELVMTQSPDSLAVSLGERATINCKSSQSVLSSSNNKNYLNWYQQKPGQPPKLLIYWASTRESGVPDRFSGSGSGTDFTLTISSLQAEDVAVYYCQQHYSVPFTFGPGTKVDIKSGGGGSEVQLLESGGGLVQPGGSLKLSCAASGFTFNRYAMNWVRQAPGKGLEWVARIRSKYNNYATYYADSVKGRFTISRDDSKNTAYLQMNNLKTEDTAVYYCVRHGNFGNSYLSYFAYWGQGTLVTVSSGGGGSGGGGSGGGGSELVVTQEPSLTVSPGGTVTLT[gap - about 80 residues]FGGGTKLTVL | binds

Second part, the binder after the results:

Row | binding result | Binder
3 | binds | MCSP-G4 HLP x E1L HLP (bispecific antibody, plus C-terminal His6 tag) QVQLVQSGAEVKRPGASMKVSCKASGYTFTNYYIHWVRQAPGQGLEWMGWINPNSGATNYAQKFQGRVTMTRDTSTSTVYMELSSLRSEDTAVYYCAKSWVSWFASWGQGTLVTVSSGGGGSGGGGSGGGGSELVMTQSPDSLAVSLGERATINCKSSQSVLNSSNNRNYLAWYQQKPGQPPKLLIYWASTRESGVPDRFSGSGSGTDFTLTISGLQAEDVAVYYCQQHYSTPFTFGPGTKVDIKSGGGGSEVQLLESGGGLVQPGGSLKLSCAASGFTFNKYAMNWVRQAPGKGLEWVARIRSKYNNYATYYADSVKSRFTISRDDSKNTAYLQMNNLKTEDTAVYYCVRHGNFGNSYTSYYAYWGQGTLVTVSSGGGGSGGGGSGGGGSELVVTQEPSLTVSPGGTVTLT[gap - about 80 residues]FGGGTKLTVL
4 | binds | MCSP-G4 HLP x F6A HLP (bispecific antibody, plus C-terminal His6 tag) QVQLVQSGAEVKRPGASMKVSCKASGYTFTNYYIHWVRQAPGQGLEWMGWINPNSGATNYAQKFQGRVTMTRDTSTSTVYMELSSLRSEDTAVYYCAKSWVSWFASWGQGTLVTVSSGGGGSGGGGSGGGGSELVMTQSPDSLAVSLGERATINCKSSQSVLNSSNNRNYLAWYQQKPGQPPKLLIYWASTRESGVPDRFSGSGSGTDFTLTISGLQAEDVAVYYCQQHYSTPFTFGPGTKVDIKSGGGGSEVQLLESGGGLVQPGGSLKLSCAASGFTFNIYAMNWVRQAPGKGLEWVARIRSKYNNYATYYADSVKSRFTISRDDSKNTAYLQMNNLKTEDTAVYYCVRHGNFGNSYVSFFAYWGQGTLVTVSSGGGGSGGGGSGGGGSELVVTQEPSLTVSPGGTVTLT[gap - about 80 residues]FGGGTKLTVL
